Assay results: the RNAGym collection of RNA variant scans (doi:10.1093/nar/gkz1192)
Read counts are not given, so values of variants with three or more changes are uncertain.

B1: CPEB3 Ribozyme (parent)
chain: UAACAGGGGGCCACAGCAGAAGCGUUCACGUCGCAGCCCCUGUCAGAUUCUGGUGAAUCUGCGAAUUCUGCUGUAUAUCUC

Variants of: B1
Experiment: self-cleavage, relative activity (ratio to wild type); higher = more cleavage; in vitro, sequencing
Procedure, shortened: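 Relative activity compares each variant's cleaved/total read fraction with that of the unmutated ribozyme. To get these fractions, barcoded CPEB3 ribozyme libraries from rounds of error-prone PCR were transcribed with T7 RNA polymerase for 5 hours at 37°C and then given 15 min of DNase I treatment before EDTA was added. The RNAs were reverse transcribed with template switching and sequenced on Illumina, and DNA sequencing linked barcodes to variants. A minimum of 5 reads applied, and three batches were averaged.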

**Q.** With UAACAGGGGGCCACAGCAGAAGCGCUCACGUCGCAGCCCCCGUCAGAUUCUGAUGAAUCUGCGAAUUCAGCUGUAUAUCUC [U25C U41C G53A U69A] as the variant, how does the self-cleavage read?
**A.** 0.09

**Q.** For UAACAGGGGGCCACAGCAGAAGCGCUCACGUCGCAGCCCCCGCCAGAUCCUGGUGAAUCUGCGAAUUCUGCUGUAUAUCUC [U25C U41C U43C U49C], which self-cleavage is on record?
**A.** 0.4

**Q.** For UAACAGGGGGCCACAGCAGAAGCGCUCACGUCGCAGCCCCCGUCAGACUCUGGUGAAUCCGCGAAUUCUGCUGUAUAUCUC [U25C U41C U48C U60C], which self-cleavage is on record?
**A.** 0.07

**Q.** Which self-cleavage does the source give for UAACAGGGGGCCACAGCAGAAGCGCUCACGUCGCAGCCCCCGUCAGAUACUGGCGAAUCUACGAAUUCUGCAGUAUAUCAC [U25C U41C U49A U54C G61A U72A U80A] here?
**A.** 0.07

**Q.** With UAACAGGGGGCCACAGCAGAAGCGCUCACGUCGCAGCCCCCGUCAGAUUCCGGCGAAUCUGCGAAUUCUGCUGUAUAUCUC [U25C U41C U51C U54C] as the variant, how does the self-cleavage read?
**A.** 0.26

**Q.** For UAACAGGGGGCCACAGCAGAAGCGCUCACGUCGCAGCCCCCGUCAGAUUCUGGAGAAUCUGCGAAUUCUGCUGUAUAUCUC [U25C U41C U54A], which self-cleavage is on record?
**A.** 0.31

**Q.** With UAACAGGGGGCCACAGCAGAAGCGCUCACGUCGCAGCCCCCGUCAGAUUCUGGUGAAUCUGCGAAUUCUGCUGCAUAUCUC [U25C U41C U74C] as the variant, how does the self-cleavage read?
**A.** 0.14

**Q.** For UAACAGGGGGCCACAGCAGAAGCGCUCACGUCGCAGCCCCGGUCAGAUUCUGGUGAAUCUGCGAAUUCUGCUGUAUAUCCC [U25C U41G U80C], which self-cleavage is on record?
**A.** 0.35

**Q.** For UAACAGGGGGCCACAGCAGAAGCGCUCACGUCGCAGCCCCUGACAGAUUCUGGUGAAUCCGCGAAUUCUGCUGUAUAUCUC [U25C U43A U60C], which self-cleavage is on record?
**A.** 0.43

**Q.** For UAACAGGGGGCCACAGCAGAAGCGCUCACGUCGCAGCCCCUGACAGAUUCUGGUGAAUCCGCGAAUUCUGCUGUACAUCUC [U25C U43A U60C U76C], which self-cleavage is on record?
**A.** 0.09

**Q.** With UAACAGGGGGCCACAGCAGAAGCGCUCACGUCGCAGCCCCUGACAGAUUCUGGUGAAUCUGCGAAUUCUGCCGUAUACCUC [U25C U43A U72C U78C] as the variant, how does the self-cleavage read?
**A.** 0.3

**Q.** With UAACAGGGGGCCACAGCAGAAGCGCUCACGUCGCAGCCCCUGCCGGAUUCUGGUGAAUCUGCGAAUUCUGCUGUUUAUCUC [U25C U43C A45G A75U] as the variant, how does the self-cleavage read?
**A.** 0.23

**Q.** For UAACAGGGGGCCACAGCAGAAGCGCUCACGUCGCAGCCCCUGCCAGAUUCUGGUGGAUCUGCGAAUUCUGCUGUAUAUCUC [U25C U43C A56G], which self-cleavage is on record?
**A.** 0.06

**Q.** For UAACAGGGGGCCACAGCAGAAGCGCUCACGUCGCAGCCCCUGCUAGAUUCUGGUGAAUCCGCGAAUUCUGCUGUAUAUAUC [U25C U43C C44U U60C C79A], which self-cleavage is on record?
**A.** 0.17

**Q.** For UAACAGGGGGCCACAGCAGAAGCGCUCACGUCGCAGCCCCUGCCAGAUUCUGGUGAAUCUACGAUUUCUGCUGUAUAUCUC [U25C U43C G61A A65U], which self-cleavage is on record?
**A.** 0.18

**Q.** With UAACAGGGGGCCACAGCAGAAGCGCUCACGUCGCAGCCCCUGCCAGAUUCUGGCGAAGCUGCGAAUUCUGCUGUAUAUCCC [U25C U43C U54C U58G U80C] as the variant, how does the self-cleavage read?
**A.** 0.17

**Q.** With UAACAGGGGGCCACAGCAGAAGCGCUCACGUCGCAGCCCCUGCCAGAUUCUGGCGAAUCUGCGAAUUCUGCUGUAUAUCCC [U25C U43C U54C U80C] as the variant, how does the self-cleavage read?
**A.** 0.12

**Q.** Which self-cleavage does the source give for UAACAGGGGGCCACAGCAGAAGCGCUCACGUCGCAGCCCCUGCCAGAUUCUGGGGAAUCUGCGAAUUCUGCUGUAUAUCUC [U25C U43C U54G] here?
**A.** 0.13

**Q.** Which self-cleavage does the source give for UAACAGGGGGCCACAGCAGAAGCGCUCACGUCGCAGCCCCUGCCAGAUUCUGGUGAAUCAGCGGAUUCUGCUGUAUAUCAC [U25C U43C U60A A64G U80A] here?
**A.** 0.38

**Q.** Which self-cleavage does the source give for UAACAGGGGGCCACAGCAGAAGCGCUCACGUCGCAGCCCCUGCCAGAUUCUGGUGAAUCUGCGAAUUCUGCAGUAUAUCCC [U25C U43C U72A U80C] here?
**A.** 0.25

**Q.** Which self-cleavage does the source give for UAACAGGGGGCCACAGCAGAAGCGCUCACGUCGCAGCCCCUGGCGGAUUCUGGUGAAUCUGCGAAUUCUGCUGUAUAUCUC [U25C U43G A45G] here?
**A.** 0.12

**Q.** With UAACAGGGGGCCACAGCAGAAGCGCUCACGUCGCAGCCCCUGGCGGAUUCUGGGGAAUCUGCAAAUUCUGCUGUACAUCUC [U25C U43G A45G U54G G63A U76C] as the variant, how does the self-cleavage read?
**A.** 0.1

**Q.** For UAACAGGGGGCCACAGCAGAAGCGCUCACGUCGCAGCCCCUGUCAGACUCUGGUGCAUCUGCGGAUUCUGCUGUAUAUCUC [U25C U48C A56C A64G], which self-cleavage is on record?
**A.** 0.13

**Q.** For UAACAGGGGGCCACAGCAGAAGCGCUCACGUCGCAGCCCCUGUCAGACUCUGGUGUAUCUGCGAAUCCUGCUGUAUAUCUC [U25C U48C A56U U67C], which self-cleavage is on record?
**A.** 0.16

**Q.** With UAACAGGGGGCCACAGCAGAAGCGCUCACGUCGCAGCCCCUGUCAGACUCUGGUGAAUCUGCGAAUUCUACAGUAUAUCUC [U25C U48C G70A U72A] as the variant, how does the self-cleavage read?
**A.** 0.09

**Q.** Which self-cleavage does the source give for UAACAGGGGGCCACAGCAGAAGCGCUCACGUCGCAGCCCCUGUCAGACUCUGGUGAAUCCGCGAAUUCUGCUGUAUAUCUU [U25C U48C U60C C81U] here?
**A.** 0.17

**Q.** With UAACAGGGGGCCACAGCAGAAGCGCUCACGUCGCAGCCCCUGUCAGACUCUGGUGAAUCUGCGAAUUCAGCUGUAUAUCUC [U25C U48C U69A] as the variant, how does the self-cleavage read?
**A.** 0.41

**Q.** With UAACAGGGGGCCACAGCAGAAGCGCUCACGUCGCAGCCCCUGUCAGACUCUGGUGAAUCUGCGAAUUCUGCUGUAUAUCCC [U25C U48C U80C] as the variant, how does the self-cleavage read?
**A.** 0.39

**Q.** For UAACAGGGGGCCACAGCAGAAGCGCUCACGUCGCAGCCCCUGUCAGAGUCUGGUGAAUCUGCGAAUUCUGCUGGAUAUCUC [U25C U48G U74G], which self-cleavage is on record?
**A.** 0.44

**Q.** For UAACAGGGGGCCACAGCAGAAGCGCUCACGUCGCAGCCCCUGUCAGAUACUGGUGAAUCUGCGAAAUCUGCUGUAUAUCUC [U25C U49A U66A], which self-cleavage is on record?
**A.** 0.18

**Q.** Which self-cleavage does the source give for UAACAGGGGGCCACAGCAGAAGCGCUCACGUCGCAGCCCCUGUCAGAUCCUGGUGCAUCUGCGAAUUCUGCUGUAUAUCUC [U25C U49C A56C] here?
**A.** 0.16

**Q.** Which self-cleavage does the source give for UAACAGGGGGCCACAGCAGAAGCGCUCACGUCGCAGCCCCUGUCAGAUCCUGGUGAAUCUGCGAAUUCUGCUGCGUUUCUC [U25C U49C U74C A75G A77U] here?
**A.** 0.14

**Q.** Which self-cleavage does the source give for UAACAGGGGGCCACAGCAGAAGCGCUCACGUCGCAGCCCCUGUCAGAUUCAGGUGGAUCAGCGAACUCUACUGUAUAUCUC [U25C U51A A56G U60A U66C G70A] here?
**A.** 0.19

**Q.** For UAACAGGGGGCCACAGCAGAAGCGCUCACGUCGCAGCCCCUGUCAGAUUCAGGUGUAUCUGCGAAUUCUGCUGUAUAUCUC [U25C U51A A56U], which self-cleavage is on record?
**A.** 0.11
